Assay results from PubChem BioAssay AID1346428 (National Center for Advancing Translational Sciences (NCATS), 2018).
Several values for one entry are separate records, joined by “and”; a condition that tells them apart may be missing. Equal entries are not always repeated. Hit rate of the full screen: of about 48,000 compounds, about 1,200 (2.5%) were called active. Inconclusive results (about 2%) are left out.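 Rule for the calls: active = activation of at least 60% and not above a set upper limit (about 1 call in 100 departs from these limits); inconclusive = activation of 40% to 60%, or above that upper limit; inactive = activation under 40%.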 The list shows a part of the results.
Note: 0% is about no effect.

The compounds below were run against Probable G-protein coupled receptor 32 (Homo sapiens) (UniProt O75388) (assay: qHTS for Agonists of Human Resolvin D1 Receptor DRV1). Settings: CHO-K1 GPR32 beta-arrestin PathHunter luminescence, 90 min; at 76.9 µM; hits give high values; zero percent set by DMSO-only wells.
Sequence of UniProt O75388 (O75388 whole entry, looked up): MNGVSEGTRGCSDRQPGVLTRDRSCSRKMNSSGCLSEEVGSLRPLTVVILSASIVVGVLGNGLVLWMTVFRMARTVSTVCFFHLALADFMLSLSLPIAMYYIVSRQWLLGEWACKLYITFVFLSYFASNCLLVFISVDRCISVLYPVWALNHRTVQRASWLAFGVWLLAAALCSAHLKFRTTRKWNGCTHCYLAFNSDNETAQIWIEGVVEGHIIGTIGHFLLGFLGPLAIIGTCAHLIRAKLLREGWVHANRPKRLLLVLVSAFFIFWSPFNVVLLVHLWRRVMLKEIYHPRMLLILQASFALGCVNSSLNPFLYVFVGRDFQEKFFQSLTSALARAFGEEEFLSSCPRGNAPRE
How it was run: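 Cells are plated overnight, treated with compounds in DMSO for 90 minutes at 37 °C, and developed with PathHunter detection reagent for 1 hour before luminescence is read; signal reflects beta-arrestin binding to GPR32 in engineered CHO-K1 cells.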
With `CS(=O)(=O)N1CCc2cc(C(=O)N3CCN(c4ccc(F)cc4)CC3)ccc21` the activation was inactive: -6.74%. With `Cc1ccccc1NC(=O)Cn1nc(-c2ccc(F)cc2)c2cnc3ccccc3c21` the activation was inactive: -13.2%. For `CC(=O)N1CCCc2ccc(NS(=O)(=O)c3ccc(F)cc3F)cc21`, the activation was inactive: -9.12%. In the case of `Cc1ccc(N2CC(NC(=O)c3ccc4c(c3)OCO4)CC2=O)cc1` (stereo not drawn), the activation is reported as inactive: -1.62%. In the case of `Cc1ccc(-n2c(SCC(=O)Nc3cccc(Cl)c3)nc3n[nH]c(C)c3c2=N)cc1`, the activation is reported as inactive: 5.74%. For `COC(=O)Nc1nc2ccc(C(=O)c3cccs3)cc2[nH]1`, the activation was inactive: -11.9% and inactive: 5.09%. With `CCOc1ccc(-c2c(C)nn3c(C)c(C(=O)NCc4ccc(C)o4)cnc23)cc1OCC` the activation was inactive: 23.6%. In the case of `Cc1cc(N2CCC(C)CC2)nc2ccc(NC(=O)/C=C/c3cccc(Cl)c3)cc12`, the activation is reported as inactive: 7.8%. For `Cn1c(Oc2ccc(F)cc2)nc2c1c(=O)n(Cc1ccccc1Cl)c(=O)n2C`, the activation was inactive: 37.7%. With `O=C(NCCc1ccc(Cl)cc1)c1ccc(CS(=O)(=O)Cc2ccccc2F)o1` the activation was active: 111%. `CC(=O)N1CCc2c(sc3c2c(=O)n(-c2ccc(C)cc2)c(=O)n3CC(=O)Nc2ccccc2)C1` was tested, and the activation was inactive: -7%. `CCc1ccccc1NC(=O)CSc1nnc(CC)c(CC)n1` was tested, and the activation was inactive: -6.74%. With `CSc1ccc(CNC(=O)c2cc3c(=O)n(Cc4ccco4)ccc3nc2C)cc1` the activation was inactive: -17.3%. `Cc1ccc2nc(NC(=O)c3cc(=O)c4cc(Cl)ccc4o3)sc2c1` was tested, and the activation was inactive: -16.4%. In the case of `COc1ccccc1NC(=O)c1c(NC(=O)c2ccccc2F)sc2c1CCC2`, the activation is reported as inactive: 12%. `COc1ccc(Cn2ccc3nc(C)c(C(=O)Nc4ccc(C)c(F)c4)cc3c2=O)cc1` was tested, and the activation was inactive: 20.1%. In the case of `Cc1ccc(-c2cc(C(=O)NCc3ccccc3)c3c(-c4ccc(C)cc4)[nH]nc3n2)cc1`, the activation is reported as inactive: -10.5%. With `COC(=O)c1c(NC(=O)c2ccccc2C(=O)O)sc2c1CCCC2` the activation was inactive: -4.13%. For `COC(=O)c1c(C)sc(-c2c(-c3cccc(Cl)c3)[nH]c3c2c(=O)[nH]c(=O)n3C)c1O`, the activation was inactive: -8.25%. `Cc1cc(C)cc(NC(=O)c2sc3nc(-c4cc5ccccc5oc4=O)[nH]c(=O)c3c2C)c1` was tested, and the activation was inactive: -3.61%. `CCc1cccc(C)c1NC(=O)C(C)Sc1nc2c(c(=O)[nH]1)CCCC2` (stereo not drawn) was tested, and the activation was inactive: -8.9%. With `COc1ccccc1C(=O)Nc1nnc(SCc2cc(=O)n3ccc(C)cc3n2)s1` the activation was inactive: -4.38%. In the case of `Cc1ccc(OCc2ccc(-c3nc(C#N)c(N4CCC(C)CC4)o3)o2)cc1`, the activation is reported as inactive: -22.1%. With `COc1ccc(-c2noc(N3CCN(c4cccc(C)c4C)CC3)n2)cc1OC` the activation was inactive: 0.633%. For `COc1ccc(CCNC(=O)CCc2c(C)nc3c(c(C)nn3-c3ccccc3)c2C)c(OC)c1`, the activation was inactive: -5.4%. For `Cc1cccc(N(C)C(=S)Oc2ccc3c(c2)CCC3)c1`, the activation was inactive: -0.135%. In the case of `CCCNC(=O)CCC(=O)N1Cc2ccccc2Oc2ncccc21`, the activation is reported as inactive: -9.79%. `C=CC(=O)Nc1cc2c(Nc3ccc(F)c(Cl)c3)ncnc2cc1OCCCN1CCOCC1` was tested, and the activation was inactive: 1.27%. `CCc1ccccc1NC(=O)C1CCN(C2=NS(=O)(=O)C(c3ccc(C)c(C)c3)=C2C)CC1` was tested, and the activation was active: 89.4%. With `COc1ccc(C(=O)CN2C(=O)N(c3cc(C)ccc3C)S(=O)(=O)c3ccccc32)cc1` the activation was inactive: -10.7%. With `CCOC(=O)c1c(C)oc2nc(C)nc(NC(C)c3ccccc3)c12` (stereo not drawn) the activation was inactive: 1.03%. For `Cc1cccc(OCC(=O)Nc2ccc3c(c2)nc(CCNC(=O)c2ccco2)n3C)c1`, the activation was inactive: -2.44%. In the case of `Cc1nc2c3ccccc3nc(NNC(=O)CCC(=O)N3CCN(c4ccccc4)CC3)n2n1`, the activation is reported as inactive: -3.43%. In the case of `CC1=C(C(=O)OCc2ccc(C)cc2)C(c2ccccc2Cl)CC(=O)N1` (stereo not drawn), the activation is reported as inactive: 27.3%. For `CNC[C@H](O)c1ccc(O)c(O)c1`, the activation was inactive: 40.6% and inactive: -1.68%. In the case of `Cc1ccccc1-c1noc(CSc2nnc(-c3ccncc3)n2-c2ccc(F)cc2)n1`, the activation is reported as inactive: -10.1%. In the case of `Cc1ccc(OCCCCn2c(CCNC(=O)C(C)(C)C)nc3ccccc32)cc1`, the activation is reported as inactive: 1.55%. In the case of `Cc1sc2c(c1C)c(=O)n(-c1cccc(C(F)(F)F)c1)c(=O)n2Cc1ccccc1C#N`, the activation is reported as inactive: -4.5%. With `Cc1ccccc1NC(=O)CN1C(=O)CCn2nc(-c3cccn3C)cc21` the activation was inactive: -17.3%. For `CCn1cc(C(=O)NCc2ccccc2Cl)c(=O)c2cc(S(=O)(=O)N3CCCCC3)ccc21`, the activation was inactive: 8.96%. `Cc1ncc(CO)c2c1Oc1nc(-c3ccccc3)nc(SCC(=O)Nc3cccc(C(F)(F)F)c3)c1C2` was tested, and the activation was inactive: 2.53%. For `CCOc1ccc(N(CC)C(=O)CSc2n[nH]c(-c3ccccc3)n2)cc1`, the activation was inactive: -3.69%. For `O=C(CSc1n[nH]c(-c2ccccc2Cl)n1)N1CCN(c2ccccc2F)CC1`, the activation was inactive: -6.18%. For `O=C(NC1CCCC1)c1ccc2c(c1)N(Cc1ccccc1F)C(=O)c1ccccc1S2`, the activation was inactive: -21%. `COc1ccc(-c2coc3c2c(C)cc2oc(=O)cc(C)c23)cc1` was tested, and the activation was inactive: 5.06%. For `O=C(Cc1ccccc1)Nc1cccc(-c2nc3cccnc3s2)c1`, the activation was inactive: -13.8%. In the case of `CC1=C(C(=O)Nc2cccnc2)C(c2ccccc2)n2nc(SCc3ccccc3F)nc2N1` (stereo not drawn), the activation is reported as inactive: 13.7%. `COc1ccc(CCN2C(=O)N(c3ccc(F)cc3)C(=O)C2CC(=O)Nc2ccc(F)c(F)c2)cc1` (stereo not drawn) was tested, and the activation was inactive: -4.54%. `CCOc1ccc(N(CC(=O)NCc2ccc(Cl)cc2)S(=O)(=O)c2c(C)noc2C)cc1` was tested, and the activation was inactive: -8.33%. With `COCCCNC(=O)C1CCC(Cn2c(=O)c3sccc3n(Cc3ccc(F)cc3)c2=O)CC1` (stereo not drawn) the activation was inactive: -1.57%. With `Cc1cc(NC(=O)Nc2csc3c2CCCC3)ccc1Br` the activation was inactive: -1.37%. For `Cc1c(NC(=O)c2ccc(N3CCC(C)CC3)c([N+](=O)[O-])c2)cccc1-c1nc2ccccc2o1`, the activation was inactive: -14.8%. `Cc1ccc(C(=O)Nc2ccc(OCc3cc(=O)n4c5c(sc4n3)CCCC5)cc2)cc1` was tested, and the activation was inactive: 6.03%. `Cc1cccc(N2CCN(C(=O)c3oc(=O)c4ccccc4c3-c3ccccc3)CC2)c1C` was tested, and the activation was inactive: -1.3%. `COc1ccc(-c2nc3scc(CCNS(=O)(=O)c4ccc(NC(C)=O)cc4)n3n2)cc1` was tested, and the activation was inactive: 9.76%. In the case of `CCN(CC)CCNC(=O)c1c(C)[nH]c(/C=C2\C(=O)Nc3ccc(F)cc32)c1C`, the activation is reported as inactive: -4.86%. For `COc1cc2nc(SCC(=O)Nc3ccccc3F)n3nc(-c4ccccc4)nc3c2cc1OC`, the activation was inactive: 17.7%. For `CCOC(=O)c1ccc(NC2SC(=O)N(Cc3cccc(C(=O)O)c3)C2=O)cc1` (stereo not drawn), the activation was inactive: -71%. In the case of `CCc1ccc(NC(=O)CSc2nc3c(sc4ccccc43)c(=O)n2CCCOC(C)C)cc1`, the activation is reported as inactive: -4.39%. `CCOc1ccc(Cn2c(CNS(=O)(=O)c3cccc(Cl)c3)nc3cccnc32)cc1` was tested, and the activation was inactive: -7.09%. For `COc1ccc(-c2nc3ccc(NS(=O)(=O)c4ccc(Cl)cc4)cc3o2)cc1`, the activation was active: 79.5%. With `Cc1ccc(CNC(=O)c2ccc(CSCc3ccccc3C)o2)cc1` the activation was inactive: -27.3%. `COc1ccccc1C(=O)N1CCN(Cc2cc(=O)oc3cc(C)ccc23)CC1` was tested, and the activation was inactive: -6.1%. With `COc1ccc(-n2cc(C(=O)NCc3ccccc3Cl)c3ccccc3c2=O)cc1` the activation was inactive: -19.5%. With `CCCCN(CC)C(=O)Cn1ncc2c3ccccc3n(CCC)c2c1=O` the activation was inactive: -14.3%. For `COc1ccccc1NC(=O)CSC1=Nc2ccccc2C2=NC(CCC(=O)NCc3cccs3)C(=O)N12` (stereo not drawn), the activation was inactive: -32.3%. For `CCOc1cccc(C(=O)N(Cc2ccc(CC)cc2)C2CCS(=O)(=O)C2)c1` (stereo not drawn), the activation was inactive: -7.21%. `CCCNC(=O)Cn1nc(-c2ccc(F)cc2)c2cnc3ccc(F)cc3c21` was tested, and the activation was inactive: 7.42%. In the case of `COc1ccc(/C=C/C(=O)Nc2ccccc2C(=O)O)cc1OC`, the activation is reported as inactive: 7.33%. With `Cn1c(=O)[nH]c2cc(-c3noc(-c4cccc(Cl)c4)n3)ccc21` the activation was inactive: -7.93%. For `CCC(C)NC(=O)c1cccc(NC(=O)c2nsc3ccccc23)c1` (stereo not drawn), the activation was inactive: -9.44%. With `CCCCCCOc1ccc(C2C(=O)N(C3CCCCC3)CC(=O)N2CCCC)cc1` (stereo not drawn) the activation was inactive: -22.7%. In the case of `CCOc1cccc(C(=O)Nc2cc(-c3ccc(C)cc3)no2)c1`, the activation is reported as inactive: 27.3%. With `O=C(CN1C(=O)CCc2cc(S(=O)(=O)N3CCOCC3)ccc21)Nc1cccc(C(F)(F)F)c1` the activation was inactive: -12%. `Cc1ccc2c(=O)cc(C(=O)Nc3sc4c(c3C(=O)NCc3ccccc3)CCCC4)oc2c1C` was tested, and the activation was inactive: 12.2%. For `CN(C)c1ccc(CNC(=O)CCS(=O)(=O)c2ccc3c(c2)oc(=O)n3C)cc1`, the activation was inactive: -5.4%. `CCCCN1C(C(=O)c2ccccc2)=C(OC(C)=O)c2ccccc2S1(=O)=O` was tested, and the activation was inactive: -57.9%. `Cc1noc(Cn2c(=O)c3cc4c(cc3n(CC(=O)Nc3ccccc3Br)c2=O)OCO4)n1` was tested, and the activation was inactive: -18%. For `O=C(Nc1sc2c(c1C(=O)N1CCCCC1)CCCC2)c1ccccc1Cl`, the activation was inactive: -17.8%. `COc1ccc(NC(=O)CNC(=O)Cn2c(C)cc3ccccc3c2=O)cc1OC` was tested, and the activation was inactive: 36.1%. `Cc1ccccc1CNC(=O)CN(c1cccc(C)c1C)S(C)(=O)=O` was tested, and the activation was inactive: -7.58%. With `CCCCN(CCCC)C1=C(C(=O)c2ccccc2)N(C)S(=O)(=O)c2ccccc21` the activation was inactive: -96.3%. In the case of `CCCS(=O)(=O)N1CCCC(C(=O)NCCOC)C1` (stereo not drawn), the activation is reported as inactive: -7.06%.
